Hit rate of the full screen: of about 150,000 compounds, about 540 (0.36%) showed an effect of 50% or more. This is one part of the list.

The text below walks through data of ChEMBL document CHEMBL4888484, “Replenishing the malaria drug discovery pipeline: Screening and hit evaluation of the MMV Hit Generation Library 1 (HGL1) against asexual blood stage Plasmodium falciparum ,using a nano luciferase reporter read-out” (2022).

The assay deals with Plasmodium falciparum. Nature of the assay: Primary screen in NF54 nanoGlo assay, in single point, at 2uM, 72h; a lower Z score goes with more inhibition. In kind it is functional, Erythrocyte. The settings on record: timepoint 72 hour.
For `O=C(c1ccc(CN2CCOCC2)cc1)N1CCN(S(=O)(=O)c2ccccc2)CC1`, the % Inhibition (in general, the change of the read-out against control, counted positive when it falls) is recorded as -10% and the Z score was determined as 1.56.

Regarding `C[C@H](C(=O)N1CCN(C)CC1)C1CC[C@@]2(C)Cc3sc(CS(=O)(=O)c4ccc(Cl)cc4)nc3[C@@H](C)[C@@H]2[C@H]1O` (some centres undefined), the “% Inhibition” value is given as -6% and the Z score was 0.86.

For `CNC(=O)C1=CCN(C(=O)c2cc(C)cc(C)c2)CC1`, the “% Inhibition” value is on record as -8% and the Z score was 1.35.

Take `CCn1nc(C)c(Cn2ccnc2-c2nc3ccccc3[nH]2)c1C`: the “% Inhibition” value is given as 4% and the Z score was -0.7.

Consider `CCCNC(=O)c1ccc(N2CC[S+]([O-])CC2)nc1`, for which the “% Inhibition” value is given as -9% and the Z score came to 1.68.

For `Cc1cc(NC(=O)CN2CCc3cncnc3C2)n(C)n1`, the “% Inhibition” value is given as 0% and the Z score was determined as 0.08.

`O=C(NCc1cc(F)c(Cl)cc1F)N1CC(N2CCCC2=O)C1`: the “% Inhibition” value is on record as -6% and the Z score is on record as 0.8.

On to `NS(=O)(=O)Cc1ncsc1Br`, for which the “% Inhibition” value is on record as -10% and the Z score worked out at 1.45.

With `CCCCn1c(N)c(N(C(=O)COc2ccccc2-c2ccccc2)C2CCCC2)c(=O)[nH]c1=O`, the “% Inhibition” value is listed as -8% and the Z score is 1.51.

As for `Cc1nnc(NC(c2cnc3ccccc3c2)[C@H]2C[C@@H](O)C2)s1` (some centres undefined), the “% Inhibition” value is on record as 35% and the Z score is given as -1.08.

For the compound `CC[C@@]1(O)COC2(CN(C(=O)c3ccc(OC)cc3OC)C2)C1`, the “% Inhibition” value turned out to be 4% and the Z score was -0.6.

For `COc1ccc(F)c(C(=O)N[C@H]2CC[C@@H]3CCC[C@@H]32)c1F`, the “% Inhibition” value is on record as -10% and the Z score amounted to 1.55.

`Cc1ccc(C[C@H](C)NS(=O)(=O)N(C)CCC#N)c(C)c1`: the “% Inhibition” value is 4% and the Z score was -0.57.

For `Cc1cc(NC(=O)N2CCN(c3ccccc3)C(=O)[C@@H]2C)n(CC(C)C)n1`, the “% Inhibition” value is on record as -6% and the Z score stood at 1.21.

Consider `CC1CCC(C(C)C)C(OCC(=O)N2CCN(c3cccc(F)c3C#N)CC2)C1` (centres undefined), for which the “% Inhibition” value is recorded as -17% and the Z score turned out to be 3.4.

Turning to `COc1ccccc1Cn1c(C)cc(=O)c(C(=O)N2CCN(c3cccc(Cl)c3)CC2)c1C1CC1`, the “% Inhibition” value is on record as -11% and the Z score was 1.27.

With `O=C(c1ccccc1)N1CCO[C@@H](CS(=O)(=O)NCc2ccccn2)C1`, the “% Inhibition” value is listed as -3% and the Z score was determined as 0.37.

As for `c1ccc(CCc2nc(CNC3CCOCC3)cs2)cc1`, the “% Inhibition” value was -13% and the Z score stood at 1.3.

In the case of `Cc1ccccc1CNC(=O)c1cccn(-c2ccc(NC(=O)c3ccccc3)cc2)c1=O`, the “% Inhibition” value was -1% and the Z score was found to be 0.07.

Turning to `COc1cccc(-c2ccc3nc(C(=O)N4CCN(CCN(C)C)CC4)cn3c2)c1`, the “% Inhibition” value is -17% and the Z score came out at 1.7.

Regarding `O=C(Cn1nnnc1CN1CCCC1)NCC(F)(F)F`, the “% Inhibition” value came to 1% and the Z score was -0.15.

As for `Cc1cc(C)nc(CN2CCc3occc3[C@@H]2C(=O)O)c1`, the “% Inhibition” value is given as 3% and the Z score was -0.47.
